Assay results from the supplement of paper PMC3334620.
Over roughly 33,000 sequences, “E-score (-0.5 to 0.5)” has its median near -0.036; the highest 2% begin near 0.37. Some of the results follow.

Each sequence was assayed against T1, Yer064c (UniProt P40041) (assay: PBM E-score (8-mer binding enrichment) (E-score (-0.5 to 0.5)); higher = stronger / more preferred TF binding; most listed sequences are background and not binding sites). Conditions: protein concentration: 200 nM; construct: GST-full length.
T1 sequence: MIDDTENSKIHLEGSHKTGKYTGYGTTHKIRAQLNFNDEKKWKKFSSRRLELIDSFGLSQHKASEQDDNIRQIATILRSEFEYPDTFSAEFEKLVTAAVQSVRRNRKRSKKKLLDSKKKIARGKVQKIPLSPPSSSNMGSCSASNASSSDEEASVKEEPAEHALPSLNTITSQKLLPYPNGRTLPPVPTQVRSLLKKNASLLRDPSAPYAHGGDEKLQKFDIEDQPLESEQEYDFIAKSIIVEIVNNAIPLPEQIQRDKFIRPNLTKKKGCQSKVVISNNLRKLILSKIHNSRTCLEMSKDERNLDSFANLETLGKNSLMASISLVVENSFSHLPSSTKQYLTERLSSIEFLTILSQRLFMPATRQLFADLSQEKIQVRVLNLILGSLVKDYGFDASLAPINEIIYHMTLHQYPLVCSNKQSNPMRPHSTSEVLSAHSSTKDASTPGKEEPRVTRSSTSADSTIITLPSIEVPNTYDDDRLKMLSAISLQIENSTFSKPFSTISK
Procedure, shortened: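 PURExpress in vitro transcription/translation supplied GST-tagged yeast transcription factors, either full-length or DNA-binding domain. Applied at about 100-200 nM to universal all-10-mer Agilent arrays double-stranded by primer extension, the bound protein was detected with fluorescent anti-GST. E-scores, modified Wilcoxon-Mann-Whitney statistics, were given by the Universal PBM Analysis Suite to ungapped eight-base words pooled with their reverse complements after masliner normalisation.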

Sequence | PBM E-score
AGACTCTG | 0.301
AAGAGGCA | -0.0452
AAGTAGCT | -0.154
GTTGTATA | -0.0846
AGAACAAG | -0.0488
AATGATCC | -0.00231
CACGTGCC | -0.137
AGTTAGAG | 0.143
CTGTTTCC | -0.201
CCAAGCAA | -0.173
GTTAGTGA | 0.171
AGAATTGA | 0.0843
ACGTGTGC | -0.194
AAAGTCGG | -0.0666
AGGTCTGA | 0.108
AGCAGTGG | -0.244
GACGGAAC | 0.0216
TTATCCAA | 0.193
AACGCCGA | -0.0821
CTGCGACC | -0.141
AGCGGAAC | -0.0183
ATAGCGGA | -0.0727
GGACAATA | -0.0724
CTAGCTTA | 0.112
GACAGCGC | -0.089

Sequence | PBM E-score
ACTCGAGG | -0.00534
AGAAAAAT | 0.053
CCTTGCCG | -0.189
CTTTCATC | -0.00122
TCATACGA | 0.139
CGCGGCCC | -0.378
GAGCTGAC | 0.293
CTTTAGCA | -0.154
CGGAAGAC | 0.0876
ACATGTGG | 0.119
AAGTTGGA | 0.0501
GCCTTAAA | 0.0855
CATCAGAC | 0.228
CACTATTA | 0.0522
ACGCCCAT | -0.147
CGGTTTAA | -0.0168
CGTTAGGA | 0.0277
GCAGAAAA | 0.00962
CCATGAGG | -0.305
ACCCATGG | 0.113
CGATATTA | 0.126
ATTACTGC | 0.101
AGCTCCCA | -0.167
GTAGAGAA | -0.00676
CCAGAATA | -0.117

Sequence | PBM E-score
AAAAACTC | 0.101
AACATCTA | -0.0661
CCAACTAA | 0.0435
ACCGTGCA | -0.0752
CACGGTCC | -0.289
CCACTTCA | -0.1
ACCCTTCC | 0.0155
CAGATTCA | 0.157
GTGGTAAA | -0.067
GATTCTGC | 0.187
ACTTCGGC | 0.0486
ATCAAACG | 0.0507
GCGATCGA | -0.251
GCTAATTA | 0.0849
ATCCCGAT | 0.0298
ATTGAAAA | 0.126
GAGTTTGC | -0.00893
CTAAGCTC | 0.0364
ACGGCCCT | -0.385
ATGGTGCG | -0.172
CACTTAAG | 0.149
GCCCATGA | -0.0169
GCACGCCC | -0.212
AATCATGT | 0.453
GGTCCTCA | -0.0925

Sequence | PBM E-score
ACATAACA | 0.0324
AGGTGACA | -0.0676
AATGGCAG | -0.187
AGTCACCA | 0.469
ATATTTGA | 0.22
ATGCCTTA | -0.124
CCCGTCTA | -0.089
CATTACCG | 0.00021
CGATTAAC | 0.265
GAGGGGAC | 0.00191
ACACATCA | 0.152
ACAGACCG | -0.261
ACTGTCTC | 0.0116
TCTGGACA | -0.266
ATTGTGCG | 0.038
ACAGAGCG | -0.05
ACTTAAGT | 0.176
AGCTTCGA | -0.125
AGGATTCG | -0.0455
CATGAGTA | 0.341
AATGGGCC | -0.281
ATCACAGC | 0.102
CCCATCAC | -0.0593
CGAGAAGC | -0.169
CTGTCATA | 0.0424

Sequence | PBM E-score
ACCGGTCG | -0.0496
CCCTGATC | -0.0628
ACAGAACA | -0.00928
ACTCCGCA | 0.108
CCTGCTAC | -0.184
TAGGCGCA | -0.147
CCATGGCA | -0.151
CACAATCG | 0.0405
GCGGAGTA | -0.0756
ACCCGGGA | 0.0149
CCGCTAAC | -0.181
GAAACAGC | -0.155
AGGTTACT | -0.0277
CAGCGGAA | -0.156
CAATATCA | -0.101
GTCAGAAC | 0.188
GACGATTA | 0.235
CCGACCCG | -0.0852
GGAGTTAC | -0.0565
AATCACAC | 0.39
GAAGACGC | -0.193
CACCCCGG | -0.158
GCTAAATA | 0.0617
CTATCTTA | 0.0476
CAAATGTA | 0.0294

Sequence | PBM E-score
CCGGGTGC | -0.19
CTCAACAG | 0.0876
TCTTATAA | 0.12
AAAAGGGT | 0.0701
TCGGATAA | 0.118
AGTCCCCA | 0.104
ATCGCCGA | -0.0721
CGGTCAGA | -0.0902
ATTAAAGC | 0.0483
TCACTCCA | 0.152
CAGCGCTC | 0.0249
CGCGTAAC | -0.139
CTTCGCGA | 0.105
CGTTATAA | -0.0476
TCAGGTAA | 0.258
AGCAGTTC | -0.0752
AAATGGAC | 0.0357
AGGCCATC | -0.231
ATCAGCCA | 0.0788
TACGGGGA | -0.0803
AGACTGTG | 0.0326
CTAATGTC | -0.0148
CAAAAAGG | -0.139
AGTTGTTC | -0.0226
ATATCCGC | -0.126

Sequence | PBM E-score
GTACGGAA | -0.113
ATATCGGA | -0.00073
CAGCCTGG | -0.0683
CTCCTACC | -0.0279
TACCCGTA | -0.0721
AAATCATT | 0.359
CTACGGTC | -0.133
CTCCATTC | -0.173
CACAGTAC | 0.0375
CCCTTTTC | -0.151
AGAATCCC | 0.0788
CTCGGGGC | -0.00751
ATTGCTCC | -0.217
CACAACAC | 0.095
CAGTCCGG | -0.187
TACACCTA | 0.0213
CATAGGCG | -0.266
GTATAGCA | -0.172
CCTTCCAA | 0.049
GGGCAAAA | -0.154
ACGGGCAT | -0.24
GCAGGGAC | -0.0853
GAACGCTA | -0.101
GCTAGAGC | -0.0433
CCGGTGCC | -0.347

Sequence | PBM E-score
ATGCCATC | -0.298
AACCCGGA | -0.008
AGGCTGTG | -0.042
ACCTAGCC | -0.262
GTTCAGTA | 0.0775
ACGCGGTA | -0.227
GCATATAC | -0.259
AACAGACC | -0.124
CAACTCTG | -0.0555
CTCGGATC | -0.036
CGTTATCC | -0.11
CCTGACCG | -0.197
AAAGATTT | 0.107
CATTCGCC | -0.185
CCCAAAAA | -0.0974
TAATCGTA | 0.163
AGAGGATC | -0.0859
TCCTGAGA | 0.122
AAGTAATA | -0.197
ACCTAATG | 0.0141
CCGCCTAC | -0.132
GCACACAC | 0.00172
GTCCACAA | -0.214
AGTTCAAT | -0.0152
CCAAGAAC | -0.15

Sequence | PBM E-score
TTAGCTAA | 0.19
ACTACAAA | 0.169
ATTGCGTG | -0.15
ACGATCCG | -0.0916
ACCACAAG | -0.107
CGGTCCGC | -0.28
ATGTCGAG | -0.0948
GGTCGAGA | -0.122
CACCTACA | -0.0403
GCAAGCTA | -0.0761
ATTAGATC | 0.0994
AACTGACT | 0.404
GCGTACAC | 0.0428
ATCGGATG | -0.0626
AACGTAAG | 0.186
CTTGCAGC | -0.0777
GATTCTGA | 0.223
ATCTTTAC | -0.0262
CAATACTG | 0.0129
